Values belong to the compound of their own block, whether it stands above or below them.
How the values were obtained:
[1] = Regression model of 364-day continuous vaginal ring use; design: species or system human
Experimental: Continuous use models for the vaginal ring system were post hoc analyses based on PK data obtained from a phase 1 PK sub-study.
A regression model was constructed post hoc to describe the relationship between serum SA concentration and the number of days of vaginal ring use and to extrapolate the expected SA concentration after one year of continuous use. Serum SA data points taken in the first 72 hours following vaginal ring insertion and from days 1-3 from each cycle were not included, as the initial burst of steroid release from insertion/reinsertion would not be predictive of serum SA levels with continuous use. Serum SA levels measured after vaginal ring removal were also excluded. Data from subjects who were not adherent during vaginal ring use were also excluded. Adherence was evaluated in the primary PK sub-study, which was based on diary recordings and observed progesterone/estradiol levels. Serum measurements were log transformed for regression modeling. Serum SA measurements were from cycles 1, 3 and 13. The day of use (if continuous) was calculated as (cycle −1)*21+cycle-day of use (21/7). The last measurement was from cycle 13, day 15, corresponding to the 267th day of use. Using the model's parameters, serum SA levels after 364 days of hypothetical use and the 95% confidence interval (95% CI) around the predicted values were predicted as well as the mean. […] A similar modeling approach was used for EE.
Linear mixed models adjusting for the repeated measurements from each subject during the study were constructed. Linear regression models without a repeated measure adjustment were also constructed for comparison and simplicity. The models were fitted using SAS version 9.4 (SAS Institute, Cary, NC).

[2] = Regression model of quarterly use; design: species or system human
From the text: The regression model described in Example 12 was used to predict AUC and Cavg values for SA and EE after four quarterly periods of extended use of the vaginal system disclosed herein. […] Cavg is the SA concentration in serum during the product-use period while the AUCF-L is the area under the curve for the period beginning on the first day (“F”) and ending on the last day (“L”) of the product-use cycle.
Cavg is the SA concentration in serum during the product-use period while the AUCF-L is the area under the curve for the period beginning on the first day and ending on the last day of the product-use cycle.
Cavg is the average concentration in serum during the product-use period while the AUCF-L is the area under the curve for the period beginning on the first day and ending on the last day of the product-use cycle.
Cavg is the average EE concentration in serum during the product-use period while the AUCF-L is the area under the curve for the period beginning on the first day and ending on the last day of the product-use cycle.

[3] = biological target: cytochrome P450 (CYP) 3A4 isoenzyme (Homo sapiens, UniProt P08684); format: in vitro ADME
From the text: The hydroxylated EE metabolites have weak estrogenic activity.

[4] = Half-life; format: in vivo; conditions: human, serum, other: vaginal; read-out: mean (SD) half-life (converted)
[5] = co-administration of atorvastatin or rosuvastatin and certain CHCs containing EE; cited from earlier work
[6] = biological target: serum albumin (Homo sapiens, UniProt P02768); assay: Binding to serum albumin
[7] = tested on: rats; assay: 2-year carcinogenicity study in rats with subdermal implants; format: in vivo, rat; conditions: subdermal implants releasing 40, 100, and 200 μg per day, 2 years
From the text: Long-term continuous administration of natural and synthetic estrogens in certain animal species increases the frequency of carcinomas of the breast, uterus, cervix, vagina, testis, and liver.

[8] = tested on: Salmonella; assay: Ames/Salmonella reverse mutation assay; format: cell-based
[9] = tested on: Chinese hamster ovary cells; assay: Chromosomal aberration assay; format: cell-based
[10] = tested on: mouse; assay: In vivo mouse micronucleus test
[11] = tested on: rats; assay: Return to fertility study in rats with subdermal implants; format: in vivo, rat
Experimental: A return to fertility study was conducted with segesterone acetate in rats, using subdermal implants releasing a dose approximately 25 times the anticipated daily vaginal human dose (based on body surface area).

[12] = tested on: QTc interval; assay: Phase 1 thorough QTc study; format: in vivo, human; conditions: single intravenous bolus dose giving 4.5-fold the therapeutic serum concentrations
Experimental: The effect of SA on the QTc interval was evaluated in a Phase 1 randomized, placebo and positive controlled, double-blind, single-dose, three-period, crossover thorough QTc study in 44 healthy adult female subjects.

[13] = tested on: human serum proteins; assay: Serum protein binding; format: in vitro ADME
[14] = biological target: T1, sex hormone-binding globulin (SHBG) (Homo sapiens, UniProt P04278); assay: Binding to sex hormone-binding globulin
T1 sequence (P04278 30-402): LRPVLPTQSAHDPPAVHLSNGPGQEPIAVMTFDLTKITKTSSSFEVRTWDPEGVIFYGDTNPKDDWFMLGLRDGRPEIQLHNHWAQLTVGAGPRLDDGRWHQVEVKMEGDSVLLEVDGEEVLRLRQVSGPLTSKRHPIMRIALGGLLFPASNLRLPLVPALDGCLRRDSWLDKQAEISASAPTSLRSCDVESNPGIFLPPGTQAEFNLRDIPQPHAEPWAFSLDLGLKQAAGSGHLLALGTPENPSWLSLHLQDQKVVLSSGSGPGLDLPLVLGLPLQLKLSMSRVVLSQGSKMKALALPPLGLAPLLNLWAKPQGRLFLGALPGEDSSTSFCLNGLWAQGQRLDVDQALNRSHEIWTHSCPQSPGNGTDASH

[15] = tested on: CYP enzymes; assay: In vitro CYP inhibition/induction studies; format: in vitro ADME; conditions: at the therapeutic dose
[16] = tested on: ovulation; conditions: in vivo; cited from earlier work
[17] = linear regression model, value in brackets
[18] = SA predicted, 84-day product-use periods, 7-day removal, quarterly period 3

Sequence of UniProt P08684 (P08684 whole entry): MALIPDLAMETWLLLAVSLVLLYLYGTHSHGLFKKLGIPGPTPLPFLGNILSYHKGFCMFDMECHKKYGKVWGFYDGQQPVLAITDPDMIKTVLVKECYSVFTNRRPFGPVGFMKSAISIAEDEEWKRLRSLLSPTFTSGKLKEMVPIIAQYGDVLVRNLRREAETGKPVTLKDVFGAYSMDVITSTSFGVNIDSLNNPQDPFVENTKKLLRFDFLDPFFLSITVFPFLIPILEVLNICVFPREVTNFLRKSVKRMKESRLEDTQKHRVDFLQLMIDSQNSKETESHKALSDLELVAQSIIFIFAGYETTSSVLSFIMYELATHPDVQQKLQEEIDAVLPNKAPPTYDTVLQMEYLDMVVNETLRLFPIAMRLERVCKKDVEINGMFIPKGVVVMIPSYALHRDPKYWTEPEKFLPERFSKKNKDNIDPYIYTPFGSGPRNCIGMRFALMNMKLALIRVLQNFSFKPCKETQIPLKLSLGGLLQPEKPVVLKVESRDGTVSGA

accumulation of serum EE levels at 364 days ([1]; continuous use model, linear regression): no accumulation
95% CI for the predicted mean serum EE level, day 364 ([1]; linear regression model): 39 to 48 pmol/L
predicted mean serum EE level after 364 days of continuous vaginal ring use ([1]; linear regression model): 43 pmol/L
predicted mean serum EE level after 364 days of continuous vaginal ring use [1, 17]: 12.7 pg/mL
accumulation of serum EE levels after quarterly product-use periods ([2]; 84-day or 88-day models): no accumulation
half-life [4]: 15.1 h
bound to serum albumin [6]: 98.5%
Compound: C#C[C@]1(O)CC[C@H]2[C@@H]3CCc4cc(O)ccc4[C@H]3CC[C@@]21C [EE, 19-nor-17α-pregna-1,3,5(10)-trien-20-yne-3,17-diol]
metabolizing enzyme [3]: metabolized by the cytochrome P450 (CYP) 3A4 isoenzyme
increase in systemic exposure of EE [5]: 20-25%

Compound: C=C1C[C@H]2[C@@H]3CCC4=CC(=O)CC[C@@H]4[C@H]3CC[C@]2(C)[C@@]1(OC(C)=O)C(C)=O [SA, 16-methylene-17α-acetoxy-19-nor-pregn-4-ene-3,20-dione]
95% CI for the predicted mean serum SA level, day 364 ([1]; linear regression model): 171 to 198 pmol/L
predicted mean serum SA level after 364 days of continuous vaginal ring use [1, 17]: 68 pg/mL
AUCF-L(pmol*h/L) (95% CI) [2, 18]: 527,507 (506,390- pmol*h/L
Cavg (pmol/L) (95% CI) [2, 18]: 261 (258- pmol/L
Cavg (pmol/L) (95% CI) ([2]; SA predicted, 84-day product-use periods, 7-day removal, quarterly period 4): 217 (214- pmol/L
predicted serum SA level after the last quarterly product-use period ([2]; linear regression model): above 100 pmol/L
tumor incidence [7]: no drug-related increase in tumor incidence was observed
mutagenicity/clastogenicity [8]: neither mutagenic nor clastogenic
mutagenicity/clastogenicity [9]: neither mutagenic nor clastogenic
mutagenicity/clastogenicity [10]: neither mutagenic nor clastogenic
ovulation and litter parameters after treatment ([11]; 7 weeks after cessation of treatment): no adverse effects on ovulation or resulting litter parameters
fertility during treatment ([11]; subdermal implants, three months of treatment): suppressed fertility
effect on the QTc interval [12]: did not prolong the QTc interval to any clinically relevant extent
bound to human serum proteins [13]: approximately 95%
binding affinity for sex hormone-binding globulin (SHBG) [14]: negligible
metabolizing enzyme [3]: metabolized by the cytochrome P450 (CYP) 3A4 isoenzyme
inhibition or induction of CYP enzymes [15]: unlikely to inhibit or induce CYP enzymes
serum SA level previously shown to suppress ovulation [16]: above 100 pmol/L

From patent publication US20240252428A1, “METHODS OF PROVIDING BIRTH CONTROL” (THE POPULATION COUNCIL, INC., priority 2021, published 2024)
